# Results taken from publication PMC12040169 (PLOS Biology, 2025).
# Some of the results follow.
# Test system: T1, C. trachomatis L2/434/Bu expressing GFP (CTL2-GFP)
# T1 construct: L2/434/Bu GFP intracellular growth in HeLa cells
# Design: species or system HeLa; C. trachomatis total inclusion area by high-content imaging, normalised to DMSO
# Settings: total inclusion area; 28.5 h, 10 µM; inhibitor
# Summary of the method: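 Post-fluorescence-read fixation, DNA staining with Hoechst and high-content imaging; GFP inclusion area and number per well, and nuclei counts, used as proxies for bacterial growth and host viability.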
row,Compound,% of control remaining
1,CC(C)S(=O)(=O)n1ccn(-c2cccc(C(F)(F)F)c2)c1=O [CBK106577],86.641
2,COc1cc(C(=O)N2CCC3(CC2)NC(=O)c2cc(C)ccc2O3)cc(OC)c1C [CBK166273],47.4259
3,O=C(CNS(=O)(=O)Cc1ccccc1[N+](=O)[O-])Nc1ccc(F)cc1 [CBK042228],92.8367
4,CCN(Cc1ccccc1)Cc1ccco1 [CBK261884],102.1
5,C1=C(CN2CCn3nc(CNc4cnccn4)cc3C2)CCCC1 [CBK307406],34.671
6,CC(=O)Nc1ccc(-c2csc(N3CCN(C)CC3)n2)cc1 [CBK305865],78.9588
7,CC(CC(=O)O)CC(=O)Nc1ccc(C(=O)O)cc1 (stereo not shown) [CBK265560],97.281
8,Cc1ccc(C2=NN(C(=O)CCC(=O)O)C(c3cc4cccc(C)c4[nH]c3=O)C2)cc1 (stereo not shown) [CBK296927],92.9793
9,O=C(c1cccs1)N(Cc1ccco1)c1ccc(O)cc1 [CBK269256],94.6358
10,CCc1cc(C(=O)OC)c(NC(=S)Nc2nc3cc(C)c(C)cc3s2)s1 [CBK267116],122.432
11,Cc1nn(CC(=O)N2CCCCC2C)c(=O)c2cc3occc3n12 (stereo not shown) [CBK283622],93.1767
12,CC(=O)Nc1ccc(S(=O)(=O)N2CCN(C/C=C/c3ccccc3)CC2)cc1 [CBK261545],83.4418
13,Cc1ccccc1C(=O)NC(=S)Nc1sc2c(c1C#N)CCCC2 [CBK264403],110.97
14,CCn1ncc(CN2C3CCC2CC(O)(c2cccc(F)c2)C3)c1C (stereo not shown) [CBK282754],102.128
15,OCCN(Cc1cccnc1)Cc1cccn1-c1cccc(F)c1 [CBK283018],112.714
16,CS(=O)(=O)c1nsc(Cl)n1 [CBK007229],70.2036
17,Cc1ccc(C(=O)CN2CCC3(CC2)CC(=O)c2cc(Br)ccc2O3)cc1 [CBK162266],90.7067
18,O=c1[nH]c2cccc(O)c2o1 [CBK048613],30.3278
19,O=S(=O)(Nc1cccc(Cl)c1)c1ccc(Cl)c(Cl)c1 [CBK044636],80.1043
20,Cn1nc([N+](=O)[O-])nc1Sc1nnnn1-c1ccc(C(=O)O)cc1 [CBK266961],92.1081
21,COc1ccccc1/C=C/CN1CCNC(=O)C1CC(=O)O (stereo not shown) [CBK269845],106.9
22,COc1ccc(CN2CCN(S(=O)(=O)c3ccc(Cl)cc3)CC2)cc1OC [CBK264204G],89.1529
23,CN(C)c1ncnc2[nH]ncc12 [CBK016810],75.0082
24,CCN1CC2(CCN(CCCC#N)CC2)c2ccccc21 [CBK136995],105.054
25,COC(=O)[C@@H]1CN(C(=O)Nc2ccccc2)CCN1C(=O)C1CCCCC1 [CBK289607],86.5657
26,CC(C)n1c(=O)n(CC(=O)N(C)C2CCCCC2)c2cccnc21 [CBK283695],82.7021

row,Compound,% of control remaining
1,COc1cccc2c3c([nH]c12)C1(CCN(CCCC#N)CC1)N(C(C)=O)CC3 [CBK039722],87.503
2,CC(C)[C@@H](CO)Nc1cc(-c2cccc(Br)c2)nc2ccnn12 [CBK037117],151.095
3,O=C(Nc1ccc(-c2nc3ccccc3o2)c(O)c1)c1ccc(-c2cccc(Cl)c2)o1 [CBK263422],94.6575
4,O=C(Nc1c(F)cccc1F)N(Cc1cc(F)cc(F)c1)CC1CCNCC1 [CBK049795],43.234
5,COc1ccc2c(c1)cc(C(=O)N1CCCn3cncc3C1)n2C [CBK306516],74.2926
6,CC1CCCN(c2ccc(NC(=O)c3cccs3)cc2[N+](=O)[O-])C1 (stereo not shown) [CBK266402],89.7329
7,CCc1noc(CN2CCCC(c3ccc(C(=O)O)cc3)C2)n1 (stereo not shown) [CBK307102],61.3667
8,Cc1cc(NC(=O)Nc2cccc(Cl)c2C)no1 [CBK288245],82.6867
9,CCn1c(C2CCN(C(=O)c3ccc(C)c(Cl)c3)CC2)nn(C)c1=O [CBK307280],70.3289
10,CN(C)c1cccc2c(S(=O)(=O)n3c(=O)n(CCc4c[nH]c5ccccc45)c4ccccc43)cccc12 [CBK106511],88.2592
11,Cc1ccc(CN(CCCN2CCOCC2)Cc2ccoc2)o1 [CBK283234],90.9667
12,O=[N+]([O-])c1nn(-c2ccc(Cl)cc2)[n+]([O-])c1NCc1ccccn1 [CBK268270],64.2893
13,C#CCn1nnc2ccccc21 [CBK028164],92.7175
14,COc1ccc(CCCC(=O)Nc2cc(N3CCNCC3)ncn2)cc1OC [CBK107856],91.5598
15,CC1(C)[C@H]2CC/C(=N/O)[C@]1(C)NC2=O [CBK006513],35.3996
16,Cc1ccc(N2CCN(S(=O)(=O)c3ccc(I)cc3)CC2)c(C)c1 [CBK098562],94.2994
17,O=C(Nc1ccccc1C(=O)NCc1ccccc1)c1cccc(F)c1 [CBK269351],102.069
18,CC(C)Cc1csc2nc(-c3ccc(Br)cc3)oc(=O)c12 [CBK026692],95.1742
19,CNC(=O)c1sc2ccccc2c1C1CCN(S(=O)(=O)c2ccc(C)c(C)c2)C1 (stereo not shown) [CBK285877],92.5142
20,O=C(O)CCn1cc(/C=C2\SC(=S)NC2=O)c(-c2cccc(Br)c2)n1 [CBK265287],104.262
21,NC(=O)Cn1cc(CNC2(c3ccccc3)CC2)c2ccccc21 [CBK282776],78.9882
22,CCOC(=O)c1cc(-c2ccc(OC)cc2)nn1-c1ccc(C(=O)O)cc1 [CBK296133],71.2028
23,O=C1Nc2ccc(C(=O)NCC(O)CO)cc2/C1=C/c1c[nH]c2ncccc12 (stereo not shown) [CBK115363C],64.3083
24,Cc1cc(C)nc(N2CCC(c3cc(CCOc4ccc(C(F)(F)F)cc4)[nH]n3)C2)n1 (stereo not shown) [CBK286073],84.1631
25,CC(NC(=O)Nc1ccccc1O)(C(F)(F)F)C(F)(F)F [CBK268019],78.6408
26,CCOc1cccc(CNc2nn[nH]n2)c1OCc1ccc(C)cc1 [CBK288127],101.462
